Legend:
[1] = molecular target: T1, Plasma-derived human alpha-1 antitrypsin (Calbiochem, US) (human, UniProt P01009, N-glycans at asparagine 46, 83 and 247); test: equilibrium constant Ka=[EI]/[E]f/[I]f from elastase activity with AAA-pNA substrate
T1 construct: mature; also called Plasma alpha-1 antitrypsin; wild-type plasma-derived alpha-1 antitrypsin
Description: (§1) Porcine pancreatic elastase (Calbiochem, Cat. 324682) and AAA-pNA (N-Succinyl-Ala-Ala-Ala-p-nitroanilide, Sigma, S4760) were used as an enzyme and a substrate, respectively, to measure the rate constants of the alpha-1 antitrypsin and variants thereof. More particularly, the porcine pancreatic elastase and the alpha-1 antitrypsin and variants thereof were mixed at the same molar ratio, and reacted at 25° C. for 120 seconds, 300 seconds, and 600 seconds. Thereafter, the AAA-pNA was added to the resulting reaction mixture, and measured for kinetics for 5 minutes at intervals of one minute. In the final reaction, the concentrations of the porcine pancreatic elastase and the alpha-1 antitrypsin and variants thereof were 20 nM, and the concentration of the AAA-pNA was 1 mM.
(§2) Also, the equilibrium constant of the alpha-1 antitrypsin and variants thereof was calculated using the following equation.

[2] = molecular target: T2, Recombinant wild-type human alpha-1 antitrypsin (subtype M3) expressed in CHO-K1 cells (T003) (human, UniProt P01009, N-glycans at asparagine 46, 83 and 247); test: as above
T2 construct: The protein was secreted from CHO-K1 cells and purified; also called pT003; wild-type human alpha-1 antitrypsin (T003)
Description: as §1, §2

[3] = molecular target: T1, Plasma-derived human alpha-1 …; test: remaining elastase activity after 120, 300 and 600 s at equal molar ratio (20 nM each), AAA-pNA substrate, 25 C
Description: as §1
(§3) Because the reaction of the porcine pancreatic elastase with the alpha-1 antitrypsin and variants thereof was an irreversible secondary reaction (Levenspiel O. Chemical reaction engineering, 2nd edition. 1972, Wiley, New York), the rate constant was calculated by the equation: 1/R=kaCE0t+1 [R=Remaining PPE activity, ka=Rate constant (M⁻¹ s⁻¹), CE0=Initial concentration of AAT (M), and t=Reaction time (seconds)]. The association rate constant (ka) was calculated using the activities of porcine pancreatic elastase remaining at each reaction time.

[4] = molecular target: T2, Recombinant wild-type human alpha-1 …; test: as above
Description: as §1, §3

Ka [1]: 2.6e+09 M⁻¹ | Ka [2]: 3.56e+09 M⁻¹ | kon [3]: 540000 M⁻¹ s⁻¹ | kon [4]: 650000 M⁻¹ s⁻¹
B1: Porcine pancreatic elastase (Calbiochem, Cat. 324682) (enzyme, UniProt P00772 27-266, looked up)
chain: VVGGTEAQRNSWPSQISLQYRSGSSWAHTCGGTLIRQNWVMTAAHCVDRELTFRVVVGEHNLNQNDGTEQYVGVQKIVVHPYWNTDDVAAGYDIALLRLAQSVTLNSYVQLGVLPRAGTILANNSPCYITGWGLTRTNGQLAQTLQQAYLPTVDYAICSSSSYWGSTVKNSMVCAGGDGVRSGCQGDSGGPLHCLVNGQYAVHGVTSFVSRLGCNVTRKPTVFTRVSAYISWINNVIASN
notes: Commercial enzyme; also called PPE
